# Measured values from paper PMC4336329 (PLoS ONE, 2015).
# About 2,200 (0.71%) of roughly 310,000 compounds showed an effect of 50% or more. Effects have a minus sign here. Some of the results follow.
# Molecular target: human ether-à-go-go-related gene (hERG) potassium channel (human, UniProt Q12809)
# Test: primary screen, population patch clamp on CHO cells stably expressing hERG
# Sequence of human ether-à-go-go-related gene (hERG) potassium channel (Q12809 whole entry, looked up): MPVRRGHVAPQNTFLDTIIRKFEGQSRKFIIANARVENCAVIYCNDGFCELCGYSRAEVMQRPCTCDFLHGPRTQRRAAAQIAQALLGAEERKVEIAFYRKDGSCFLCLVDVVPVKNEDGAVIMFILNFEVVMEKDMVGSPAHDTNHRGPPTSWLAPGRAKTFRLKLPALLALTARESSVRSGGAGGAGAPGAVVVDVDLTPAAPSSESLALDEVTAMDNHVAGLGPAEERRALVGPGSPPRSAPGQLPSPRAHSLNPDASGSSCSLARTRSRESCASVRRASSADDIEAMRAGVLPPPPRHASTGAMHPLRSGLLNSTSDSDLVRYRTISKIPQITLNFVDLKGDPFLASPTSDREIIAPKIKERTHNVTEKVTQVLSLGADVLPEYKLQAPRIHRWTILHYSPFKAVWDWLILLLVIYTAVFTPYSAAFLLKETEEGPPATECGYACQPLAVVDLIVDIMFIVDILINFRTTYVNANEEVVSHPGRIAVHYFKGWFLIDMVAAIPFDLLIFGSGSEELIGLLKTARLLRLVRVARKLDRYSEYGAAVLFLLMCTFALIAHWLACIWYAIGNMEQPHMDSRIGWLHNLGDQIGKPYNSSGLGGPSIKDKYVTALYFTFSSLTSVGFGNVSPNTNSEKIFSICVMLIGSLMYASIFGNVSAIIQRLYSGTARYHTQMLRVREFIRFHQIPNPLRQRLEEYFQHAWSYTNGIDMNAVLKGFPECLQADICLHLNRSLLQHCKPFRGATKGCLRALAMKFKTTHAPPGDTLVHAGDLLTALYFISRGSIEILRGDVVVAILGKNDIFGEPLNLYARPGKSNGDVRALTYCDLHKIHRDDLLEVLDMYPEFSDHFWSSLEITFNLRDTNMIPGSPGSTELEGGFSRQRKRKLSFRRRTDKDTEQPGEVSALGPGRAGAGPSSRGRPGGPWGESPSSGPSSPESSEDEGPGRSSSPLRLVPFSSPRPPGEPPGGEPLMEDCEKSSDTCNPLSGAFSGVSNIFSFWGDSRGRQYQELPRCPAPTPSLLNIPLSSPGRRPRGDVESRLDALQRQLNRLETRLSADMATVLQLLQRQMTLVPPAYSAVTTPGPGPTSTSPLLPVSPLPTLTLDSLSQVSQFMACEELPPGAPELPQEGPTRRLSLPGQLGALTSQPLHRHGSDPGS
row,SMILES,"hERG current change (%, negative = inhibition) at 1uM [%]"
1,COc1cc(OC)nc(Oc2ccccc2/C=N/O)n1,12
2,O=C(Nc1ccncc1)OCc1ccccc1,16.9
3,CCOC(=O)CC(=O)CSc1nc(C)cc(C)c1C#N,6.43
4,CSc1ccc(/C=N/n2c(Cc3ccc(Br)cc3)n[nH]c2=S)cc1,-2.74
5,CCOc1ccccc1CNCCO.Cl,18.7
6,CC(C(=O)N1CCc2ccccc21)N1CCN(c2cccc(C(F)(F)F)c2)CC1 (centres unmarked),-1.93
7,COC(=O)c1cc2ccsc2n1CC(=O)Nc1ccc(N(C)C)cc1,5.25
8,COc1ccc(NC(=O)OC(CN2CCCCC2)C(F)(F)F)cc1 (centres unmarked),9.93
9,CCN(CC)S(=O)(=O)c1ccc(OC)c(NC(=S)Nc2ccc(C)c(C)c2)c1,14.5
10,CC(C)(O)C#Cc1ccc(C(=O)NC2CCCCC2)s1,8.66
11,CCc1ccc(C(=O)OCC(=O)N2CCCCCC2)cc1,11.4
12,CC1Oc2ccccc2N(Cc2ccc(F)cc2)C1=O (centres unmarked),4.62
13,O=C(NCc1nc2ccccc2[nH]1)c1cc2ccccc2oc1=O,13.1
14,NS(=O)(=O)c1cc(C(=O)OCC(=O)NNC(=O)c2ccccc2)ccc1Cl,11.7
15,CC(=O)c1ccc(-n2nnnc2SCC(=O)NNC(=O)c2ccco2)cc1,16.6
16,COc1ccc(C2(c3ccc(OC)cc3)NC(=O)N(CC(=O)Nc3ccccc3C)C2=O)cc1,3.86
17,COc1cc(C(=S)N2CCOCC2)cc(OC)c1OC(=O)c1cc([N+](=O)[O-])cc([N+](=O)[O-])c1,13.3
18,CC(NC(=O)c1cccnc1)C(=O)[O-].[Na+] (centres unmarked),16.6
19,C=CCSc1nnc2c(n1)OC(c1ccccn1)N(C(C)=O)c1ccccc1-2 (centres unmarked),-2.32
20,c1ccc(-c2cn(CC3CCCCC3)nn2)cc1,11
21,Cc1ccc(NC(=O)CC2S/C(=N/c3nccs3)N(C)C2=O)c(C)c1 (centres unmarked),-1.65
22,O=C(NCc1cccs1)Nc1ccc2c(c1)OCO2,2.53
23,COc1ccc(/C=C/C(=O)C2CC2)cc1COc1c(C)cccc1C,6.77

row,SMILES,"hERG current change (%, negative = inhibition) at 1uM [%]"
1,Cc1sc2nc(COC(=O)c3ccc(Cl)c(N)c3)[nH]c(=O)c2c1C,7.02
2,Cc1cc(C)cc(N(CC(=O)NC2CCCCC2)C(=O)c2ccc(C)s2)c1,5.92
3,CC1(C(=O)O)CCC(C(=O)N2CCCCC2)C1(C)C (centres unmarked),12
4,CCOC(=O)N1CCN(CCC(=O)Nc2cc(OC)cc(OC)c2)CC1.Cl,6.92
5,CC1=C(C(=O)OCCBr)C(c2cccc3ccccc23)NC(=O)N1 (centres unmarked),12.9
6,CN(c1ccccc1)S(=O)(=O)c1cccc(NC(=O)CSc2nncs2)c1,-4.56
7,Cc1ccc([N+](=O)[O-])c(OCC(=O)OCC(=O)c2ccccc2)c1,10
8,CCOCCOC(=O)C1=C(C)NC(=O)NC1c1ccc2c(c1)OCO2 (centres unmarked),16
9,O=C(NCCOc1ccc2ccccc2c1)c1cncc(Br)c1,10.4
10,O=C(N/N=C/c1cccc(Br)c1)c1ccc(Br)cc1,5.11
11,Cc1cccc(NC(=O)CSc2nnc(CSc3nc(C)cc(C)n3)n2Cc2ccco2)c1,14.1
12,Cc1ccc2oc(C(=O)N(C)Cc3ccc(C)o3)c(C)c2c1,15.4
13,CNC(=S)N(C1=NCC(c2ccc([N+](=O)[O-])cc2)S1)c1ccccc1 (centres unmarked),-2.38
14,O=C(Cc1ccc(Br)cc1)Nc1ccccc1N1CCCC1,12.8
15,COC(=O)C1=C(c2cccc(OC)c2OC)C[C@@H]2CC[C@H]1N2C(=O)N1CCC(O)CC1,25.2
16,CCN1CCc2c(sc(NC(=O)c3ccc(S(=O)(=O)N4CCOCC4)cc3)c2C(N)=O)C1,7.87
17,NNc1nc2c(F)cc(F)cc2s1,19.6
18,C/C(=N/NC(=O)CNC(=O)c1ccncc1)c1ccc(Cl)cc1,3.5
19,COc1ccc(C(=O)NC(=S)NCc2ccco2)cc1Br,12.6
20,CCC(=O)Nc1ccc(C(=O)Nc2ccc(Br)cc2F)cc1,19.3
21,Cc1ccc(S(=O)(=O)N2CCOCC2)cc1NC(=O)CN(C)C1CCS(=O)(=O)C1 (centres unmarked),16.9
22,Cc1csc(NC(=O)CSc2nnc(-c3cccnc3)o2)n1,1.85
23,CCOC(=O)C(CC)Sc1nc(N)c(NC(=O)c2ccc(OC)c(OC)c2)c(=O)[nH]1 (centres unmarked),-6.35

row,SMILES,"hERG current change (%, negative = inhibition) at 1uM [%]"
1,COc1ccc(C(C)(C)C)cc1NC(=O)COC(=O)C(C)C,3.53
2,COc1cc(C(=O)NCC(=O)OCC(=O)c2cccc3ccccc23)cc(OC)c1OC,6.1
3,CCOC(=O)C[C@H]1c2cc(F)ccc2S(=O)(=O)N1c1ccccc1,13.1
4,CCCc1[nH]nc2c1C(Cc1ccccc1)C(C#N)=C(N)O2 (centres unmarked),7.37
5,COc1ccc(N2CCN(C(=O)NC3CC(=O)N(c4ccc(OC)cc4)C3)CC2)cc1 (centres unmarked),3.18
6,NS(=O)(=O)c1ccc(NC(=O)COC(=O)c2cn(-c3ccccc3)nc2-c2ccccc2)cc1,9.47
7,COc1cccc(C2C3=C(N=c4s/c(=C\c5ccccc5O)c(=O)n42)c2ccccc2CC3)c1OC (centres unmarked),11.3
8,O=C(NC(=S)Nc1nc(-c2ccccc2)cs1)c1ccco1,-6.49
9,CN(CC(=O)NC(=O)NCc1ccco1)Cc1nc2ccccc2c(=O)[nH]1,8.98
10,Cn1c(C(O)c2ccc(Br)cc2)nc(Cl)c1Cl (centres unmarked),1.19
11,CC1CCCN(S(=O)(=O)c2cc(Cl)ccc2Cl)C1 (centres unmarked),-2.83
12,CN1CCN(CC#Cc2ccccc2)CC1CCO (centres unmarked),12
13,O=C(NNC(=O)c1ccccc1[N+](=O)[O-])c1ccccc1[N+](=O)[O-],19.1
14,COc1cccc(/C=N/NC(N)=S)c1OCc1cccc(Cl)c1,8.77
15,CN(c1ccc(C(=O)NC2CCCC2)cc1)S(=O)(=O)c1ccccc1,6.22
16,O=C(CSc1nc(O)c(Cc2ccccc2F)c(=O)[nH]1)N1CCCCCC1,14
17,N#Cc1ccc(Cl)cc1NC(=O)COC(=O)c1cccc(S(=O)(=O)N2CCOCC2)c1,-0.432
18,COc1cc(NC(=O)c2ccc(CNc3c(N4CCOCC4)c(=O)c3=O)cc2)cc(OC)c1,0.103
19,CCCCn1c(=O)[nH]c(=O)c2c1nc(-c1cc(Cl)c(OC)c(OC)c1)n2C,13.9
20,COc1cc(C(=O)Nc2sc3c(c2C(=O)O)CCC3)cc(OC)c1OC,17.3
21,Cc1cccc(C(=O)NC(=S)NNC(=O)Cc2ccccc2)c1,7.19
22,O=C(NCCc1ccccn1)c1cc(C(=O)C2CCCCC2)c[nH]1,-7.13
23,O=C(OCC(=O)N1CCc2ccccc21)c1ccc[n+]([O-])c1,7.06

row,SMILES,"hERG current change (%, negative = inhibition) at 1uM [%]"
1,CCCCC(=O)NCCNc1nc2c(c(=O)n(C)c(=O)n2C)n1Cc1ccccc1,30.8
2,Cc1cc(-c2nnc(CCC(=O)NCc3cccc(C(F)(F)F)c3)o2)no1,11.8
3,Cc1ccc(C2C(C(N)=S)=C(N)OC3=C2C(=O)CC(C)(C)C3)cc1 (centres unmarked),3.19
4,CCN(CC)CCN1C(=O)C(=O)/C(=C(/O)c2cnn(-c3ccccc3)c2C)C1c1ccc(C)o1 (centres unmarked),1.78
5,CCc1nc2oc3ccccc3c(=O)c2c(=O)n1Cc1ccccc1,17.9
6,CC(C)Nc1oc(-c2cccc3ccccc23)nc1C#N,5.19
7,COc1ccc(C(=O)Nc2c(Cl)cc(Cl)cc2C(=O)N2CCC(C)CC2)cc1,6.41
8,Cc1cc(OCC(=O)N(C)Cc2ccccc2)ccc1Cl,13.4
9,CCCCOc1ccc(CSC(=N)N)cc1Cl.Cl,12.8
10,Cn1c(SCC(=O)Nc2ccccc2)nc2ccccc2c1=O,10.5
11,COc1cc(-c2nc3cnccn3c2Nc2ccc(C)cc2)ccc1O,4.26
12,CCOc1ccc(NC(=O)c2ccco2)cc1S(=O)(=O)N1CCCC1,-9.38
13,C/C(=N\NC(=O)c1cccc(S(=O)(=O)N2CCCCC2)c1)c1ccc(C)o1,2.52
14,O=C(OCn1nnc2ccccc2c1=O)c1ccc(S(=O)(=O)N2CCOCC2)cc1,13.1
15,CCCNC(=O)c1ccc(COc2ccc(C(C)(C)C)cc2)o1,12.4
16,COc1cccc2sc(Nc3nc(C)c(C(C)=O)s3)nc12,6.26
17,O=c1[nH]c(COc2ccc(Br)cc2Cl)nc2ccccc12,13.8
18,COC(=O)Nc1ccc(N2CCOCC2)c(S(=O)(=O)N2CCOCC2)c1,-7.28
19,COC(=O)c1c(-c2ccc(OC)cc2)sc2cc3c(cc12)OCO3,8.17
20,Cc1cc(C)c(OCCCCn2cnc3ccccc3c2=O)c(C)c1,8.04
